Data: the antibiotic and cytotoxicity screens of Wong et al. (2023)
The other results are listed elsewhere or left out.

Columns and labels:
HSkMC = human skeletal muscle cells; experiment: cytotoxicity call (relative viability < 0.9); conditions: 10 µM
HepG2 = experiment: cytotoxicity call (relative viability < 0.9); conditions: 10 µM
S. aureus RN4220 = experiment: growth inhibition call (relative growth <= 0.2); conditions: 50 µM

SMILES | cytotoxicity call (HSkMC) | cytotoxicity call (HepG2) | growth inhibition call (S. aureus RN4220)
C[C@H](CO)N1C[C@H](C)[C@H](CN(C)C(=O)C2CCCCC2)OCCCC[C@H](C)Oc2ccc(NC(=O)c3ccncc3)cc2C1=O | inactive | inactive | inactive
C=CCC[C@@H](Cc1ccc(F)cc1)C(=O)O[C@@H](CNC(=O)[C@H](CC=C)CC(=O)N(CCO)Cc1ccccc1)c1ccccc1 | active | active | inactive
Cc1ccc(S(=O)(=O)Nc2ccc3c(c2)C(=O)N([C@H](C)CO)C[C@@H](C)[C@H](CN(C)C(=O)Nc2cccc4ccccc24)OCCCC[C@@H](C)O3)cc1 | inactive | active | inactive
CCOc1ccn(-c2ccc(F)cc2)c(=O)c1C(=O)Nc1ccc(Oc2ccnc(N)c2Cl)c(F)c1 | inactive | inactive | inactive
Cc1ccc(S(=O)(=O)N(C)C[C@H]2Oc3cc(Br)ccc3S(=O)(=O)N([C@@H](C)CO)C[C@@H]2C)cc1 | inactive | inactive | inactive
C[C@H](CO)N1C[C@H](C)[C@H](CN(C)Cc2ccc(Oc3ccccc3)cc2)Oc2ccc(NC(=O)Nc3cccc4ccccc34)cc2C1=O | active | active | inactive
C[C@@H]1CN([C@H](C)CO)C(=O)c2cccc(NS(=O)(=O)c3cccs3)c2O[C@@H]1CN(C)Cc1ccc(Oc2ccccc2)cc1 | inactive | inactive | inactive
C[C@H]1CN([C@@H](C)CO)C(=O)c2cc(NC(=O)Nc3ccc(C(F)(F)F)cc3)ccc2O[C@H]1CN(C)Cc1ccccc1 | active | active | active
NC(=O)c1cccc(N)c1 | inactive | inactive | inactive
C[C@H]1CN([C@@H](C)CO)C(=O)c2cc(NC(=O)Nc3cccc4ccccc34)ccc2O[C@@H]1CN(C)Cc1ccc(C(=O)Nc2ccccc2N)cc1 | inactive | inactive | inactive
Cc1noc(C)c1S(=O)(=O)Nc1ccc2c(c1)CC(=O)N([C@@H](C)CO)C[C@@H](C)[C@H](CN(C)Cc1ccc(Oc3ccccc3)cc1)O2 | inactive | inactive | inactive
O.O.OCC1OC(OC2OC(CO)C(O)C(O)C2O)C(O)C(O)C1O (centres undefined) | inactive | inactive | inactive
CO[C@@]1(CNS(C)(=O)=O)CCSC1 | inactive | inactive | inactive
C[C@H](CO)N1C[C@H](C)[C@H](CN(C)C(=O)Nc2ccccc2C(F)(F)F)OCc2cn(nn2)CCCC1=O | inactive | inactive | inactive
CCCN(CCC)CCc1cccc2c1CC(=O)N2.Cl | inactive | inactive | inactive
N#CCN1CCSCC1 | inactive | inactive | inactive
Cc1ccc(S(=O)(=O)N(C)C[C@H]2OCCCC[C@H](C)Oc3ccc(NC(=O)CCC(F)(F)F)cc3C(=O)N([C@@H](C)CO)C[C@@H]2C)cc1 | inactive | inactive | inactive
C[C@H](CO)N1C[C@H](C)[C@@H](CN(C)C(=O)Nc2cccc3ccccc23)OCCCC[C@H](C)Oc2ccc(NS(=O)(=O)c3ccccc3)cc2C1=O | inactive | inactive | inactive
N#Cc1cccnc1N1CCCNC(=O)C1 | inactive | inactive | inactive
COc1ccc(NC(=O)Nc2ccc3c(c2)C(=O)N([C@H](C)CO)C[C@H](C)[C@H](CN(C)C(=O)Nc2ccc4c(c2)OCO4)OCCCC[C@H](C)O3)cc1 | inactive | inactive | inactive
C[C@H](CO)N1C[C@H](C)[C@@H](CN(C)CC2CC2)Oc2ccc(NC(=O)Cn3cnnn3)cc2CC1=O | inactive | inactive | inactive
CS(=O)(=O)CCC#N | inactive | inactive | inactive
NCc1nccs1 | inactive | inactive | inactive
C[C@@H]1CN([C@H](C)CO)C(=O)c2cc(NC(=O)CCCN(C)C)ccc2O[C@H]1CN(C)C(=O)Nc1ccc2c(c1)OCO2 | inactive | inactive | inactive
C[C@@H]1CN([C@@H](C)CO)S(=O)(=O)c2ccc(C#Cc3ccccc3)cc2O[C@H]1CN(C)S(=O)(=O)c1ccccc1F | inactive | inactive | inactive
Cc1noc(C)c1NC(=O)Nc1ccc2c(c1)C(=O)N([C@H](C)CO)C[C@H](C)[C@@H](CN(C)Cc1ccc(C(F)(F)F)cc1)O2 | inactive | inactive | inactive
C[C@@H]1CN([C@@H](C)CO)C(=O)c2cc(C#Cc3ccccc3F)cnc2O[C@@H]1CN(C)C(=O)C1CCOCC1 | inactive | inactive | inactive
Cc1cnc(C(=O)Nc2nn[nH]n2)cn1 | inactive | inactive | inactive
